Data reported in article PMC12136788.
This is one part of the list.

B1: chr1:36287001:36287112:+|CDS|ENSG00000054118|unk|total|mutant (ssRNA)
RNA: GGGAGUUCUACAGUCCGACGAUCCCCCUCCAGUCUGUGGUGGUGAGGCGGCGGUCACCCCGUCCCCGCCCCGUGCCAAAACCCCGUCCUCCACUUUCCAGCACAUCCCAGAUGGGCUCAACUCUGCCGAGUGGUGCCGGGUAUCAACAGAGGAUUGAGCAUCA
B2: chr2:216675988:216676089:-|3pUTR|ENSG00000115461|msi1|FALSE|unique (ssRNA)
RNA: GGGAGUUCUACAGUCCGACGAUCACUAAAAUGCAUUCCAUUCCUCUGAAAGCAAAACAAAUUCAUAAUUGAGUGAUAUUAAAUAGAGAGGUUUUCGGAAGCAGAUCUGUGAAUAUGAAAUACAUGUGCAUAUUUCAUUCCCCACAACAGAGGAUUGAGCAUCA
B3: chr21:14371318:14371404:-|3pUTR|ENSG00000155304|msi1_unk|total|mutant (ssRNA)
RNA: GGGAGUUCUACAGUCCGACGAUCUAUGAAUAACAAUCUGAAGUCUUUUCAUAAAAAAAAUUAAUAAACUUCCGUUGUACAUUCCGCCAGUGUUAUUUGAAGUAUGUAACUUUUAAAAUAUUAAGUGUCUUGUAUGAUCCGAAUCAACAGAGGAUUGAGCAUCA
B4: chr11:69653362:69653473:+|3pUTR|ENSG00000110092|msi1_unk|FALSE|overlapping (ssRNA)
RNA: GGGAGUUCUACAGUCCGACGAUCACUGCCAUGUACUAGUUUUAGUUUUCUCUUAGAACAUUGUAUUACAGAUGCCUUUUUUGUAGUUUUUUUUUUUUUUAUGUGAUCAAUUUUGACUUAAUGUGAUUACUGCUCUAUUCCAAACAACAGAGGAUUGAGCAUCA
B5: chrX:80717640:80717741:-|CDS|ENSG00000165288|msi1|total|mutant (ssRNA)
RNA: GGGAGUUCUACAGUCCGACGAUCCUGAGAAGUCCAAACAUGGACAUAUCUUCUUCCCCAAACAUCAGGCUUCGAAGACACCGCCGUCAAAUUGAAGGUGUCCGACAAAUGCAUAACAAUGCUCCUCGGAGCCAGAUGGCCACUCAACAGAGGAUUGAGCAUCA
B6: chr5:76733371:76733472:+|CDS|ENSG00000181104|msi1|total|mutant (ssRNA)
RNA: GGGAGUUCUACAGUCCGACGAUCGAUCCCAGCAGUUAUAACAGCAGUGGGCAGUUGAUGGCAAGUAAAAUGGAUACCUGCUCCCGUAACCUGAAUAACAGCAUAUACAAAAAGCUGUUAACUCCGGAAAAGGGACUGCUGGGACAACAGAGGAUUGAGCAUCA

The binders below were run against MSI1 full-length (mouse, UniProt Q61474 1-362) (assay: nsRBNS (natural sequence RNA bind-n-seq); RBNS binding buffer (assumed for nsRBNS): 25 mM Tris pH 7.5, 150 mM KCl, 3 mM MgCl2, 0.01% Triton X-100, 500 ug/ml BSA, 20 U/ml SUPERase-In, 4 C; UNK is unkempt and MSI1 is Musashi-1; names of the RNAs are library labels; protein concentration not given here; high values mean tight binding).
Chain of UniProt Q61474 (Q61474 whole entry): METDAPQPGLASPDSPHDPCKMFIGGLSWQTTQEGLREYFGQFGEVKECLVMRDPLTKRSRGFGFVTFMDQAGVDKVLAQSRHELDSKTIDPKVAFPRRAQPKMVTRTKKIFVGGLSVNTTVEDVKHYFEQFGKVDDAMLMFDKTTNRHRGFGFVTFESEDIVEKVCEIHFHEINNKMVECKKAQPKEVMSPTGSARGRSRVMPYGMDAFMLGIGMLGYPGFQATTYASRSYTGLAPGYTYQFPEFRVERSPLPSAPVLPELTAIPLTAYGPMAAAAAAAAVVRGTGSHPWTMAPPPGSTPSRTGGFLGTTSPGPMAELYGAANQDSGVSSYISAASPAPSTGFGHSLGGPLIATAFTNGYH
With B1 the binding signal was 0.516 enrichment R.
B2 was tested, and the binding signal was 0.594 enrichment R.
With B3 the binding signal was 5.04 enrichment R.
For B4, the binding signal was 32.9 enrichment R.
Work on B5 yielded a binding signal of 0.278 enrichment R.
Binder B6 has a binding signal of 0.352 enrichment R.
